# Results published in PubChem BioAssay (Tox21).
# Values joined by “and” are separate entries in the source; they are usually repeats but may differ in a detail not shown here. Identical values can stand only once. This list was built around the results that the source calls inconclusive (neither active nor inactive); the mix of calls is not that of the screen. For part of these data: Potencies beside an inconclusive call are fits to weak or partial responses and may not hold up. Active and inactive are the calls of the source. Unless noted, calls come from the whole dose curve; as a rule, active = well fitted curve in the direction sought with a large enough effect in the repeat runs; inconclusive = weak or mixed curves; inactive = no such curve, though single readings can be large; an effect the other way counts as inactive or inconclusive.
# How the values were obtained:
# [1] = qHTS assay for small molecule agonists of the p53 signaling pathway (AID 651631; calls by dose curve; note: nearly all actives have a fitted effect of over 15% in size; note: potency is the fitted concentration of half-maximal effect; for activation: % is set by controls: 0 for no effect and ±100 for the full control effect); settings: HCT-116 p53RE-bla reporter, beta-lactamase FRET ratio, 16 h; activation: at 73.3 µM (top of the series) unless noted
# Summary of the method: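 p53RE-bla HCT-116 cells; compounds 16 h, 37 °C; LiveBLAzer B/G FRET substrate 2 h RT; fluorescence intensity read-out, qHTS format.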
# [2] = qHTS assay for small molecule disruptors of the mitochondrial membrane potential (AID 720635); settings: HepG2 mitochondrial membrane potential, Mito-MPS dye ratio; ratio activity, negative = MMP loss: at 83.2 µM (top of the series) unless noted; note: potency is the fitted concentration of half-maximal effect; for ratio activity, negative = MMP loss: % is set by controls: 0 for no effect and ±100 for the full control effect
# Summary of the method: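 HepG2 cells (2,000/well) attached overnight at 37C, then took compound for 1 hr at 37C, 5% CO2. Mito-MPS dye was added for 30 min; fluorescence was read at 490/535 nm (monomers) and 540/590 nm (aggregates).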
# [3] = target: Glucocorticoid receptor (Homo sapiens) (UniProt P04150); experiment: qHTS assay to identify small molecule antagonists of the glucocorticoid receptor (GR) signaling pathway (AID 720692; active = well fitted inhibition curve with a large enough effect in the signal ratio in the repeat runs, not every such curve was filed as active; inconclusive = weak or mixed curves, or effect the other way; inactive = no such curve, though single readings can be large or run the other way; the % refers to the signal ratio; note: potency is the fitted concentration of half-maximal effect; for activity change, negative = inhibition: % is set by controls: 0 for no effect and ±100 for the full control effect); settings: GR-bla HeLa, beta-lactamase FRET ratio, dexamethasone-stimulated, 18 h
# Summary of the method: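 HeLa GR-bla cells; cmpd + dex 5 nM final, 18 h 37 C; LiveBLAzer B/G FRET substrate 2 h RT; fluorescence intensity read. Antagonist mode, qHTS.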
# [4] = qHTS assay for identifying genotoxic compounds that show differential cytotoxicity against isogenic chicken DT40 cell lines with known DNA damage response pathways - wild type cell line (AID 743012); settings: DT40 wild type chicken cells viability, CellTiter-Glo, 40 h; activity change, negative = cytotoxicity: at 68.4 µM (top of the series); note: potency is the fitted concentration of half-maximal effect; nearly all actives have a fitted effect of over 60% in size
# Summary of the method: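 Wild type DT40, 300 cells/well, ~0.5 h settle at 37 C/5% CO2; compounds in DMSO added by pintool; 40 h at 37 C/5% CO2; CellTiter-Glo, 30 min RT; luminescence.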
# [5] = qHTS assay for small molecules that induce genotoxicity in human embryonic kidney cells expressing luciferase-tagged ATAD5 (AID 651632); note: nearly all actives have a fitted effect of over 15% in size; note: potency is the fitted concentration of half-maximal effect
# Summary of the method: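 ATAD5-luc HEK293T, 2,000 cells/well; cpd or DMSO pin-transferred; 16 hr, 37C/5% CO2; Amplite 30 min RT; luminescence.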
# [6] = qHTS assay for small molecule agonists of the p53 signaling pathway - cell viability (AID 651633; calls by dose curve; note: potency is the fitted concentration of half-maximal effect; nearly all actives have a fitted effect of over 30% in size)
# Summary of the method: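 p53RE-bla cells, seeded at 4,000 per well and rested 5 h at 37 C/5% CO2, received compounds in DMSO for 16 h at 37 C. CellTiter-Glo was then added, and luminescence was read after 30 min at room temperature to gauge cytotoxicity.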
# [7] = target: Glucocorticoid receptor (Homo sapiens) (UniProt P04150); experiment: qHTS assay to identify small molecule agonists of the glucocorticoid receptor (GR) signaling pathway (AID 720691; active = well fitted activation curve with a large enough effect in the signal ratio in the repeat runs, not every such curve was filed as active; inconclusive = weak or mixed curves, or effect the other way; inactive = no such curve, though single readings can be large or run the other way; the % refers to the signal ratio; note: % is set by controls: 0 for no effect and ±100 for the full control effect); settings: GR-bla HeLa, beta-lactamase reporter ratio, 18 h; activation: at 62.4 µM (top of the series) unless noted
# Summary of the method: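 Fluorescence intensity from LiveBLAzer B/G FRET substrate (2 h, room temperature) reports beta-lactamase expression driven by the glucocorticoid response element in GR-bla HeLa cells after 18 h compound exposure at 37 C.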
# [8] = qHTS assay to identify small molecule antagonists of the glucocorticoid receptor (GR) signaling pathway - cell viability counter screen (AID 720693); settings: GR-bla HeLa viability, CellTiter-Glo luminescence, 18 h, with 5 nM dexamethasone present; viability change, negative = cytotoxic: at 58.5 µM (top of the series); note: nearly all actives have a fitted effect of over 55% in size; note: potency is the fitted concentration of half-maximal effect
# [9] = qHTS assay for small molecule disruptors of the mitochondrial membrane potential - cell viability (AID 720634; calls by dose curve; note: potency is the fitted concentration of half-maximal effect; nearly all actives have a fitted effect of over 20% in size)
# Summary of the method: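 Cells: HepG2, 2,000/well, attached overnight. Compound 1 hr, 37 C/5% CO2. +m-MPI dye, +CellTiter-Glo 30 min RT. Readout: luminescence (ATP).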
# [10] = activity change, negative = inhibition: at 58.5 µM (top of the series) unless noted
# Tags give direction and shape of the fitted curve or compound fluorescence and quenching.
# Chain of UniProt P04150 (P04150 whole entry, looked up): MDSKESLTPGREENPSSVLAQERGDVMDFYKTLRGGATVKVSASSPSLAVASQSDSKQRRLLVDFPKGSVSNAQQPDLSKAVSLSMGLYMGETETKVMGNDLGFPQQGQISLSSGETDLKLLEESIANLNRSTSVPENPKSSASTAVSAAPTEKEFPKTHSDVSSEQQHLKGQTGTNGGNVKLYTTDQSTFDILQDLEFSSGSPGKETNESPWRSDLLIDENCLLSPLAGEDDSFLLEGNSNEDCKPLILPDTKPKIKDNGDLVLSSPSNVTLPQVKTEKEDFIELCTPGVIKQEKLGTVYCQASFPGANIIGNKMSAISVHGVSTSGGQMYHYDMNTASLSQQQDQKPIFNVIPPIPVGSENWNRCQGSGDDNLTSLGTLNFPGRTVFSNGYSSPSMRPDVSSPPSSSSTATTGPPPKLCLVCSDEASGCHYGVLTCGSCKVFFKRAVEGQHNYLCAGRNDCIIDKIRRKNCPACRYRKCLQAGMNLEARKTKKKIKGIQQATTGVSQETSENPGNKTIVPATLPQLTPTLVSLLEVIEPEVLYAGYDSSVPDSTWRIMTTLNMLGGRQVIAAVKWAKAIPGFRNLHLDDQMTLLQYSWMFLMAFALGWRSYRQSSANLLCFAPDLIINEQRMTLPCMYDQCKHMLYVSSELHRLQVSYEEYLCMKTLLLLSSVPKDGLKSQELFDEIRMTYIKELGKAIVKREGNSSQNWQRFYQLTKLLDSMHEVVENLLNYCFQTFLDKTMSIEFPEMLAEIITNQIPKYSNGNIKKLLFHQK
structure (smiles),measurement,setting,value
CN(C)c1ccc(SC#N)cc1,Potency,[1],inconclusive: 61.1 µM [activator]
same,Potency,[2],"inconclusive: 9.69 µM [activator, partial curve, poor fit]"
same,Potency,[3]; [10],"inconclusive: 49 µM [activator, partial curve]"
C=C(C)C(=O)OCCC[Si](OC)(OC)OC,Potency,[1],inactive
same,"activity change, negative = inhibition",[3]; [10],inconclusive: 1.21%
same,Potency,[4],"inconclusive: 27 µM [rising, single point]"
COC(=O)c1c(Cl)c(Cl)c(C(=O)OC)c(Cl)c1Cl,Potency,[5],"inconclusive: 68.6 µM [activator, partial curve, poor fit]"
same,Potency,[6],"inconclusive: 0.0433 µM [cytotoxic, full curve, poor fit]"
same,"ratio activity, negative = MMP loss",[2],inconclusive: -17.6%
same,Potency,[7],inactive
same,Potency,[3]; [10],"inconclusive: 0.195 µM [activator, single point]"
same,Potency,[8],"inconclusive: 61.6 µM [cytotoxic, partial curve, poor fit]"
Cc1c(C)c2c(c(C)c1O)CCC(C)(COc1ccc(CC3SC(=O)NC3=O)cc1)O2 (configuration not stated),Potency,[1],active: 29.8 µM and active: 54.5 µM
same,Potency,[8],"inconclusive: 61.6 µM [cytotoxic, single point]"
same,Potency,[4],active: 10.6 µM and active: 17.2 µM
O=C(O)CS,Potency,[5],"inconclusive: 69.1 µM [activator, partial curve, poor fit]"
same,Potency,[2],"inconclusive: 3.89 µM [activator, partial curve, poor fit]"
same,"activity change, negative = inhibition",[3]; [10],inconclusive: 4.94%
CC(C)Oc1ccc2c(=O)c(-c3ccccc3)coc2c1,Potency,[5],active: 1.19 µM and active: 2.66 µM
same,Potency,[2],inconclusive: 9.44 µM and inconclusive: 9.44 µM [full curve]
same,"activity change, negative = inhibition",[3]; [10],inconclusive: 46.1% and inconclusive: 39.4%
same,Potency,[4],inconclusive: 11.9 µM [cytotoxic]
COc1ccc(OC)c(C(O)CNC(=O)CN)c1 (configuration not stated),Potency,[1],inactive
same,"activity change, negative = inhibition",[3]; [10],inconclusive: 12.3%
same,"activity change, negative = inhibition",[3]; at 27 µM (top of the series),inactive: -2.37%
COc1ccc(-c2ccc3cc(C(=O)O)ccc3c2)cc1C12CC3CC(CC(C3)C1)C2,Potency,[1],active: 2.37 µM
same,Potency,[8],"inconclusive: 26.8 µM [cytotoxic, single point]"
CC(=O)OCCOC(C)=O,Potency,[5],inactive
NC(=O)n1c(O)c(C(=O)c2cccs2)c2cc(Cl)ccc21,Potency,[1],active: 5.96 µM
same,Potency,[2],active: 11.9 µM
same,Potency,[3]; [10],"inconclusive: 16.9 µM [inhibitor, partial curve, poor fit]"
CCCCCCCCCC[N+](C)(CCCCCCCCCC)CCC[Si](OC)(OC)OC,Potency,[5],"inconclusive: 13.7 µM [activator, full curve, poor fit]"
same,Potency,[9],active: 54.5 µM
same,Potency,[2],"inconclusive: 27.3 µM [inhibitor, single point]"
same,activation,[7],inconclusive: 0.0853% [phenotype inactive]
same,"activity change, negative = inhibition",[3]; [10],inconclusive: 36.9%
CC(C)(C)c1ccc(C(O)CCCN2CCC(C(O)(c3ccccc3)c3ccccc3)CC2)cc1 (configuration not stated),Potency,[1],"inconclusive: 33.5 µM [cytotoxic, single point] and inconclusive: 29.8 µM [cytotoxic, partial curve]"
same,Potency,[2],"inconclusive: 2.11 µM [activator, full curve]"
same,Potency,[3]; [10],inactive
O=C1CCCCCN1,Potency,[1],inactive
same,Potency,[8],inactive
CC(O)C(=O)O (configuration not stated),Potency,[1],inactive
same,Potency,[8],inactive
same,Potency,[4],"inconclusive: 1.56 µM [rising, full curve]"
CCCCCC#CC(=O)OC,Potency,[1],"inconclusive: 77 µM [rising, partial curve, poor fit]"
same,Potency,[2],inactive
same,Potency,[4],"inconclusive: 61.1 µM [cytotoxic, single point]"
C=CCCCCCCC=C,Potency,[1],inactive
same,Potency,[8],inactive
SC1CCCCC1,Potency,[1],"inconclusive: 28.4 µM [activator, single point]"
same,Potency,[3]; [10],"inconclusive: 64.2 µM [activator, single point]"
same,Potency,[8],"inconclusive: 64.2 µM [rising, single point]"
C[C@]12C=CC(=O)C=C1CC[C@@H]1[C@@H]2[C@@H](O)C[C@@]2(C)[C@H]1CC[C@]2(O)C(=O)CO,Potency,[5],"inconclusive: 0.015 µM [activator, full curve, poor fit]"
c1ccc2occc2c1,Potency,[1],"inconclusive: 0.545 µM [activator, single point]"
same,Potency,[2],"inconclusive: 0.0077 µM [activator, full curve, poor fit]"
same,Potency,[8],"inconclusive: 12.3 µM [rising, single point]"
same,Potency,[4],"inconclusive: 19.3 µM [rising, full curve, poor fit]"
